Some of the results follow.

The labels stand for the following.
T1: UNK ZnF1-3 (human, UniProt Q9C0B0 31-174)
T1 sequence: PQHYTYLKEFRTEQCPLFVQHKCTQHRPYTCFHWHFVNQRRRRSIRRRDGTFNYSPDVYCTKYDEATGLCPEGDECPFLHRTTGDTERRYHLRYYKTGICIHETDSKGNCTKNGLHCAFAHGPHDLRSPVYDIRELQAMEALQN

B1: chr10:24632779:24632780:+_ENSMUSG00000019984_ENSMUST00000092646|mus_mus|FALSE|FALSE (ssRNA)
RNA: GGGAGUUCUACAGUCCGACGAUCUAGGGAUUUGAAUAAAGUGAUAUGAAUAUGAACAACAUGUAACUUACUUAUCUCUUAGAGACAAAACAUAGACAAGGAGAGGGAUUCAGUAUUUGAAUCAGAAUAAACCAAUCUGAACAUCAACAGAGGAUUGAGCAUCA
B2: chr11:10818680:10818681:-_ENSG00000110321_ENST00000525681|hu_mus|motif|central (ssRNA)
RNA: GGGAGUUCUACAGUCCGACGAUCUAUAUAAAAUCAGGGCAUGAACAUGACUUGAUAAAUUAAGUAGACUUAAUUUCAAUACGGUAAUAAGAGGGACCAAUUCAAAUUCUCACCAUUUGUUUCACACCCACAAAAACCACUUCACAACAGAGGAUUGAGCAUCA
B3: 74654493_74654613_2214_CDS_ENSG00000113161_ENST00000287936|human|control|control (ssRNA)
RNA: GGGAGUUCUACAGUCCGACGAUCAACAGAUUUUCCUCUUCCCUCUAUCCAAUUUAUAGCAGCAGGUUUCUUGUCAGUACAAUAGUUACCACUAACGGCUAGAAUCUGCAUUUCAGGGAAAUACUCGUGAAGUUUUGAAAGUGCCAACAGAGGAUUGAGCAUCA
B4: chr3:151873496:151873497:+_ENSMUSG00000028034_ENSMUST00000166984|mus_mus|motif|central (ssRNA)
RNA: GGGAGUUCUACAGUCCGACGAUCCGCUACAGCACACGCUGCCGUUUCCUCGCGGAGGGAGGCGCCGCUCUCGGUUAACUGCGGAGAAAGGAAGAAGAUGGCGGCCGUCGAGGCUCUAUCACAUUCUUGCACGACCAUCGUGCCCAACAGAGGAUUGAGCAUCA
B5: chr14:78183846:78183847:+_ENSG00000119705_ENST00000557342|hu_hu|hu_hu_hu_mus_False|8_88 (ssRNA)
RNA: GGGAGUUCUACAGUCCGACGAUCUCUCAGAAAUCUUUCUUCAUCAGCAUCAUCAGAUCCGUGCAAAGCCUUUGCUCUUUGAGCUUGAACGUGGAUCUAUGGGAGGGAAAGCACUGUCAGAAAAGGUUGUAGUGCAUUUAAAGACAACAGAGGAUUGAGCAUCA
B6: chr17:45761549:45761550:+_ENSG00000108424_ENST00000290158|hu_mus|motif|central (ssRNA)
RNA: GGGAGUUCUACAGUCCGACGAUCGCUCAGGCAGGGAGGGGAUGAAAGGAGCACGGGAGAAACCUAAGCCAAUACCUUUGACGGCAAUGGAAAUGGAAAUGGGAAUGAGGGUCUUGUGUUUCUUCCACACUACCAGGAAGCAAUCAACAGAGGAUUGAGCAUCA
B7: chr9:53392976:53392977:-_ENSMUSG00000032047_ENSMUST00000034547|mus_mus|FALSE|FALSE (ssRNA)
RNA: GGGAGUUCUACAGUCCGACGAUCUUUCAGUCCUGCAUAUUUAAGAACCUUAGGUACGGCAUAUGCAGGCGCAAGUGGAAAAUCAAUGGGGUCUACGGCAGCAUCAGCAAAUGCUGCAAUUCGUGCCAAUGGCUUAACAUUGAGCAACAGAGGAUUGAGCAUCA
B8: chr1:196632501:196632502:+_ENSMUSG00000026640_ENSMUST00000027952|mus_mus|FALSE|FALSE (ssRNA)
RNA: GGGAGUUCUACAGUCCGACGAUCGACCCGGGACCGGAGGCUGUCUGGGCUGCCUGUGUACCUGAAGGAAGAGUCAUAUCUGCUAAUGGAUGUCCGAGAGAUGCUGGCAGAGGCAGGGAUGUUGUAGGAGGAGGUCUGCUUAGGCAACAGAGGAUUGAGCAUCA
B9: chr2:198351390:198351391:-_ENSG00000144381_ENST00000345042|hu_hu|hu_hu_hu_mus_False|18_18 (ssRNA)
RNA: GGGAGUUCUACAGUCCGACGAUCUCAUUCCCACCCUCCACAGAAAGGCUGCUUCUGAACUCUCAUGUGGUGACACAGCGCUACAGUCCUGAUGCUCACAGAACAGUAGAGAUGCCUCCUCAGUGAUAGUUGAAAGCAGGACACCAACAGAGGAUUGAGCAUCA
B10: 31195606_31195726_1390_CDS_ENSMUSG00000029165_ENSMUST00000031057|mouse|control|control (ssRNA)
RNA: GGGAGUUCUACAGUCCGACGAUCGGUGUCAGGGGCUGGCUCCUCGAGUUCAGGAAUUGGCUGUGGCAUAAGCCACACAGGGUCAGUCUUCUCUUCUGCUGGCUCUGUCUCAGGCCAAGUCGCAGGGUUUUCCCCAUCAGGUGACAACAGAGGAUUGAGCAUCA
B11: 2235841_2235961_1716_CDS_ENSG00000157933_ENST00000378536|human|control|control (ssRNA)
RNA: GGGAGUUCUACAGUCCGACGAUCCUUGACCACCUCAUGCAGGAACUUCUCUUUGGCUUCCUUGGUGUCCAGGCCGCCCUCCAGUGCCUGCCGCAGGUGCUCCAGCUCCGCCUCCAGCCCACUGGGGGCGUCGGCAGGGGCCGCCAACAGAGGAUUGAGCAUCA
B12: chr12:16947260:16947261:+_ENSMUSG00000020580_ENSMUST00000020904|mus_mus|motif|central (ssRNA)
RNA: GGGAGUUCUACAGUCCGACGAUCAAUAUCUCUUUCUUCCCAGAAAAAAGCAGAAUCUGAUCUUUUUAUCAUUUCAAAUUUACGGAGAAGCUUCAUUGCAUAAACCUUCUGUGAUGCCUUAUGACGAACCAACUGAACUUCACCCAACAGAGGAUUGAGCAUCA
B13: chr4:141302222:141302223:+_ENSG00000153130_ENST00000394201|hu_hu|motif|central (ssRNA)
RNA: GGGAGUUCUACAGUCCGACGAUCUCUUUUGCUUUUUGUGUCAGUUGUUUGAAAAACACUAGAAGCUGACAUGAGAUUUUCGGUAUAUUGUCCAAGAACUUGGUUUUCUGAUUUUAGCUUCAGAUUUUCUUCCUUAACUGCAUCCAACAGAGGAUUGAGCAUCA
B14: chr1:163112212:163112213:-_ENSG00000143248_ENST00000313961|hu_hu|hu_hu_hu_mus_False|18_58 (ssRNA)
RNA: GGGAGUUCUACAGUCCGACGAUCUUUUAUUAUCAGUAAGAGUGAGUUACAUACUAGGCAAAGUAUUGGAUACAAUAUUCUAAAGAUAAACACUAUUGGUCCAGAAUUUAAAACUUUUGGGAUAAAUUGCUGGCACAGGACUUACAACAGAGGAUUGAGCAUCA
B15: chr6:11583160:11583161:+_ENSG00000205269_ENST00000379426|hu_hu|FALSE|FALSE (ssRNA)
RNA: GGGAGUUCUACAGUCCGACGAUCAAAAUCAAUAAUAUACAAUAUUUACAGCUUGUUAGGUAUUAUAUAUAAACAUAGUUUUUAAAAUAAUCCUUCAAAAUUAAACUGUUUUAUGUAAACAUGCAGUACACAUACUCAUAUAGUCAACAGAGGAUUGAGCAUCA
B16: 91397733_91399226_862_CDS_ENSMUSG00000040549_ENSMUST00000099716|mouse|control|control (ssRNA)
RNA: GGGAGUUCUACAGUCCGACGAUCCUCUUGCCAUUUCUUUGCCUCAAUUUUGUCAUAAAAGUCUUUGGGAAGUUUGGAAAGGAUCUCUACCGCAUCCAGAAGCUCAUAAGCAUCUACCUGUGGUACCUCAUCACCAUCAUCACCCAACAGAGGAUUGAGCAUCA
B17: 42638108_42638228_1226_CDS_ENSMUSG00000025184_ENSMUST00000026188|mouse|control|control (ssRNA)
RNA: GGGAGUUCUACAGUCCGACGAUCUUCAGUUACAGGGUCACAAGCUGUACCUGCAAUGUCCACCAUACAAGCCUUGCUGGUACUGUCACAUACAUUCCUAAAUCCAUCAUCUGUGUCUAUUUCAUGCACGAGGACCGCUGUAUCCAACAGAGGAUUGAGCAUCA
B18: chr7:92085846:92085847:+_ENSG00000157259_ENST00000287957|hu_mus|motif|central (ssRNA)
RNA: GGGAGUUCUACAGUCCGACGAUCGUUAAAACUGAGGCUUUAUACCUGCGAAGUAAGUAUGUCCCAGGUUUGGUUUUGUAACGGCAAGUGGUUGGCAACUGUUUCCUUAAUAGUUAUCGCAGGAGUAGGUCCAACGUGAGUCCACAACAGAGGAUUGAGCAUCA
B19: 212502490_212502610_829_CDS_ENSG00000066027_ENST00000261461|human|control|control (ssRNA)
RNA: GGGAGUUCUACAGUCCGACGAUCAACCAGUUCAUUCAGUGUUGCUCUUUUAAUUUCUUUGCUCUUCAAGUCUGAAACAGAGUCCAUGAAAUCAAACAGUAUACAACACUGCUGCAACUUCUGACAGAAAAGCUCUUGUUGUUCCAACAGAGGAUUGAGCAUCA
B20: chr14:73742652:73742653:-_ENSG00000133961_ENST00000557597|hu_mus|motif|central (ssRNA)
RNA: GGGAGUUCUACAGUCCGACGAUCCUAACCCGCUCACUUUUGGCAAGAUUACUUACAACUCAUACUUUUUAAUAUUGAGAACGGUUUAAAAUAUUCUAGGUGCAUAAAAAUAAAGAUUUUGGCUUUUUGAUAUAUAUAUAUAUACAACAGAGGAUUGAGCAUCA
B21: chr2:65473708:65473709:+_ENSG00000138071_ENST00000260641|hu_hu|FALSE|FALSE (ssRNA)
RNA: GGGAGUUCUACAGUCCGACGAUCUUUCUCUGGUCCAAAUGUGUAGUCCCACAGGUGUUUCAUGUCAUCCCAAUUUCGUACUAUGCCAUUUUCCAUAGGGUAGUUAACUUCUAACAUUGAUCGUAAUUCACUUGCCUCAUCACCCAACAGAGGAUUGAGCAUCA
B22: 151051166_151052720_551_CDS_ENSG00000113140_ENST00000231061|human|control|control (ssRNA)
RNA: GGGAGUUCUACAGUCCGACGAUCGGUGGGGUCCUGGCACACGCACAUGGGGGUGUUGUUCUCAUCCAGCUCGCACACCUUGCCGUGUUUGCAGUGGUGGUUCUGGCAGGGAUUUUCCGCCACCACCUCCUCUUCGGUUUCCUCCAACAGAGGAUUGAGCAUCA

This assay has as its target T1, UNK ZnF1-3. The experiment in a line: nsRBNS (natural sequence RNA bind-n-seq); RBNS binding buffer (assumed for nsRBNS): 25 mM Tris pH 7.5, 150 mM KCl, 3 mM MgCl2, 0.01% Triton X-100, 500 ug/ml BSA, 20 U/ml SUPERase-In, 4 C; UNK is unkempt and MSI1 is Musashi-1; names of the RNAs are library labels; protein concentration not given here; high values mean tight binding.
B1 showed a binding signal of 0.991 enrichment R.

B2: the binding signal amounted to 1.46 enrichment R.

As for B3, the binding signal is 1.08 enrichment R. Then B4, with 0.902 enrichment R; and B5, with 1.39 enrichment R; and B6, with 1.52 enrichment R. In turn, B7 gave a binding signal of 0.688 enrichment R. For the molecule B8, the binding signal was determined as 1.94 enrichment R. As for B9, the figure is 1.18 enrichment R; as for B10, 0.745 enrichment R; as for B11, 0.629 enrichment R. In turn, B12 showed a binding signal of 1.01 enrichment R.

As to B13, the binding signal was 0.282 enrichment R. As for B14, the figure is 1.26 enrichment R; as for B15, 0.432 enrichment R. B16 came in with a binding signal of 1.24 enrichment R.

Regarding B17, the binding signal worked out at 0.684 enrichment R. In turn, B18 returned a binding signal of 1.08 enrichment R.

Turning to B19, the binding signal is 0.437 enrichment R. With B20, the binding signal was 3.22 enrichment R. The molecule B21 came in with a binding signal of 0.652 enrichment R. In turn, B22 had a binding signal of 0.653 enrichment R.

Values taken from publication PMC12136788.
